Assay results: PubChem BioAssay AID1460 (National Center for Advancing Translational Sciences (NCATS), 2008)
Among all 270,000 compounds or so, about 5,800 (2.1%) were called active. This list was built around the results that the source calls inconclusive (neither active nor inactive); the mix of calls is not that of the screen. The call rests on the fitted dose curve; in most records, active means well fitted inhibition curve with a large enough effect; inconclusive means small, poorly fitted or top-dose-only effect; inactive means flat fitted curve, though single readings scatter. Potencies beside an inconclusive call are fits to weak or partial responses and may not hold up.

Target: Microtubule-associated protein tau (Homo sapiens) (UniProt P10636)
Experiment: qHTS for Inhibitors of Tau Fibril Formation, Thioflavin T Binding; further: nearly all actives have a fitted effect of over 55% in size
Conditions: recombinant tau K18 P301L (four-repeat tau fragment), heparin-induced fibrillization, ThT fluorescence; series mostly up to 57.4 µM; activity, negative = inhibition: at the top concentration
Summary of the method: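 Aggregation was driven by heparin (20 uM final) acting on recombinant tau […] bearing P301L in 100 mM sodium acetate pH 7; fibrils were detected with Thioflavin T.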
On the % scale 0 is the no-effect control and ±100 the full control effect; potency means the concentration at half of the fitted maximal effect; tags describe the fitted curve by direction and shape.

Chain of UniProt P10636 (P10636 whole entry, looked up): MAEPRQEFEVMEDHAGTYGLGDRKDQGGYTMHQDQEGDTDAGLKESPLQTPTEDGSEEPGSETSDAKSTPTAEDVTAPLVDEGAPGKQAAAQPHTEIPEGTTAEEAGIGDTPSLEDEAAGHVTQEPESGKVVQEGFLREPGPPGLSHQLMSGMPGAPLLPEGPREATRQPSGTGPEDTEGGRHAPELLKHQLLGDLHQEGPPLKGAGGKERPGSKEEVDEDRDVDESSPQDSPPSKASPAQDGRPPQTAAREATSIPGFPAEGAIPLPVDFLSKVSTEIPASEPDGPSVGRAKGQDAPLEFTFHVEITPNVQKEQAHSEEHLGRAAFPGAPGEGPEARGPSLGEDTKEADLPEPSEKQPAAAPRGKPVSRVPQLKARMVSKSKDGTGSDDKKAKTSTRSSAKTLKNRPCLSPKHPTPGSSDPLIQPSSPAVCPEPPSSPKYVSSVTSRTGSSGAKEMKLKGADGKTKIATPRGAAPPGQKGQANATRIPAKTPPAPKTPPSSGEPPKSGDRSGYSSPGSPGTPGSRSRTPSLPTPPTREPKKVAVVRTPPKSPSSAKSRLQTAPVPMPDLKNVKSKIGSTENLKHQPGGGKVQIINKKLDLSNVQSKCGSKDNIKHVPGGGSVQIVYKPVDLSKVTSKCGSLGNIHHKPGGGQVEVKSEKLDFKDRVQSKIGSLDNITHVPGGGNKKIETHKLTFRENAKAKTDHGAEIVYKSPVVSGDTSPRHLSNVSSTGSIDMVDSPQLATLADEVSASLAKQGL

| SMILES | Potency | activity, negative = inhibition |
| --- | --- | --- |
| O=C(NCc1ccco1)C(Cc1ccccc1)N1C(=O)C2C3C=CC(C3)C2C1=O (stereo not drawn) | inconclusive: 39.8 µM [inhibitor, single point] | – |
| COc1ccc(-c2nnc(Nc3ccc(OC)c(C(=O)N4CCCCC4)c3)c3ccccc23)cc1 | – | inactive: 5.57% |
| CCCCn1c(N)c(N(CCOC)C(=O)CN2c3ccccc3CC2C)c(=O)[nH]c1=O (stereo not drawn) | inconclusive: 15.8 µM [inhibitor, partial curve] | – |
| Cc1ccc2c(c1)c(=O)c1ccccc1n2CCCC(=O)Nc1ccc(C)c(C)c1 | inconclusive: 1.78 µM [inhibitor, full curve] | – |
| CC(C)c1ccc(NC(=S)Nc2ccc3cn[nH]c3c2)cc1 | inconclusive: 15.8 µM [inhibitor, partial curve] | – |
| CCN(CC)c1ccc(/C=N/N2CCN(c3ccccn3)CC2)cc1 | active: 1.26 µM | – |
| CC(/C=N/Nc1nc2ccccc2[nH]1)=C\c1ccccc1 | inconclusive: 3.55 µM [inhibitor, full curve] | – |
| O=C(Cn1nc(-c2cccc(Cl)c2)ccc1=O)Nc1ccc(C(=O)NC2CC2)cc1 | inconclusive: 39.8 µM [inhibitor, single point] | – |
| Cn1c(=O)c2c(SCC(=O)Nc3ccc4c(c3)OCCO4)nc(CC(C)(C)C)nc2n(C)c1=O | inconclusive: 20 µM [inhibitor, single point] | – |
| Cc1ccc2c(c1)-c1c(cnc3cc(-c4ccc(Cl)cc4)nn13)CO2 | inconclusive: 2 µM [inhibitor, full curve] | – |
| O=[N+]([O-])c1ccc2c(c1)[nH]c(=S)n2-c1ccccc1 | – | inactive: -17.6% |
| CCn1c(CSc2ncn[nH]2)nc2cc(C(=O)O)ccc21 | – | inactive: -2.31% |
| COc1cc(/C=C(\C#N)C(=O)NC2CCCCC2C)ccc1OS(=O)(=O)c1ccc(C)cc1 (stereo not drawn) | inconclusive: 10 µM [inhibitor, partial curve] | – |
| Cc1ccc2[nH]c(C)c(CC(=O)O)c2c1 | inconclusive: 22.4 µM [inhibitor, single point] | – |
| COc1cc(C(=O)Nc2c(C(=O)Nc3ccccc3F)oc3ccccc23)cc(OC)c1OC | – | inactive: -0.499% |
| CCCCCC(=O)N/N=C/c1ccc(N(C)C)cc1 | inconclusive: 20 µM [inhibitor, partial curve] | – |
| CCOC(=O)c1csc(Nc2nc3ccc(F)cc3s2)n1 | inconclusive: 3.98 µM [inhibitor, full curve] | – |
| S=c1[nH]nc(-c2cc(-c3ccccc3)n[nH]2)n1/N=C/C=C/c1ccccc1 | inconclusive: 17.8 µM [inhibitor, partial curve] | – |
| COc1ccccc1OC(C)C(=O)N1CCC(c2nc3ccccc3s2)CC1 (stereo not drawn) | inconclusive: 39.8 µM [inhibitor, single point] | – |
| CCCOP(=O)(c1ccc(N(C)C)cc1)C(Nc1ccccc1)c1ccc(C)cc1 (stereo not drawn) | inconclusive: 3.55 µM [inhibitor, full curve] | – |
| CCc1cccc(NC(=O)Cn2nc(C)c3sc4ccccc4c3c2=O)c1 | inconclusive: 28.2 µM [inhibitor, partial curve] | – |
| CCn1c(SCc2nc(-c3cccs3)no2)nnc1-c1c[nH]c2ccccc12 | inconclusive: 44.7 µM [inhibitor, single point] | – |

| SMILES | Potency | activity, negative = inhibition |
| --- | --- | --- |
| CCOc1ccc2nc(Nc3nc(CSc4nnnn4-c4ccccc4)cc(=O)[nH]3)nc(C)c2c1 | inconclusive: 3.55 µM [inhibitor, full curve] | – |
| CCOc1ccc(NC(=O)c2ccc3nc(C(C)C)oc3c2)cc1 | – | inactive: -16.7% |
| COc1ccc(OC)c(/C=C2\S/C(=N/NC(=O)c3ccc4ccccc4c3)NC2=O)c1 | active: 8.91 µM | – |
| Cc1ccc(-c2nc(Cn3c(SCc4ccc(F)cc4)nc4cccnc43)c(C)o2)cc1 | inconclusive: 31.6 µM [inhibitor, single point] | – |
| CC(C)(C)c1nnc(N/N=C/c2ccccc2O)n(N)c1=O | – | inactive: -8.2% |
| O=C(Nc1ccc(S(=O)(=O)Nc2nccs2)cc1)c1ccc(=O)[nH]c1 | inconclusive: 22.4 µM [inhibitor, single point] | – |
| CCN(C(=O)c1cccn(Cc2cccc(Cl)c2)c1=O)c1ccccc1 | – | inactive: -10.2% |
| CCOC(=O)N1CCc2c(sc(NCc3cccc(F)c3)c2C(=O)Nc2ccc(OCC)cc2)C1 | inconclusive: 31.6 µM [inhibitor, single point] | – |
| COc1cccc(-c2csc(N3CCN(CC(=O)Nc4ccc5c(c4)OCO5)CC3)n2)c1 | inconclusive: 14.1 µM [inhibitor, partial curve] | – |
| COc1ccc(-c2cc(C(F)(F)F)nc(N3CCN(C)CC3)n2)cc1OC | inconclusive: 31.6 µM [inhibitor, single point] | – |
| O=C(CCCCn1c(=O)[nH]c2ccsc2c1=O)NCc1ccc2c(c1)OCO2 | – | inactive: -8.08% |
| CSCCC(NC(=O)OC(C)(C)C)C(=O)Oc1ccc2c(=O)c(-c3ccc4c(c3)OCCO4)coc2c1 (stereo not drawn) | inconclusive: 12.6 µM [inhibitor, partial curve] | – |
| O=C(NC(=S)Nc1ccc(N2CCCCC2)cc1)c1cccs1 | active: 12.6 µM | – |
| CCn1c(/C=C2\C(=O)N(C(C)C)c3ccccc32)nc2ccccc2c1=O | inconclusive: 35.5 µM [inhibitor, partial curve] | – |
| CCCCCC(=O)NNC1CC(=O)N(c2cccc(OCC)c2)C1=O (stereo not drawn) | – | inactive: -9.55% |
| FC(F)(F)c1cccc(-n2c(Cn3nnc4ccccc43)n[nH]c2=S)c1 | – | inactive: 1.02% |
| Cc1cccc(N2CCN(C(=O)Cc3ccc(Br)cc3)CC2)c1C | inconclusive: 12.6 µM [inhibitor, partial curve] | – |
| CC(=O)OCCCNc1cc(Sc2nc3ccccc3s2)c2nonc2c1[N+](=O)[O-] | inconclusive: 3.98 µM [inhibitor, full curve] | – |
| CCCNC(=O)c1ccc(C2SCC(=O)N2CCc2ccccc2)cc1 (stereo not drawn) | – | inactive: -2.43% |
| Cc1c(N/C=C(\Cl)C(=O)C(F)(F)F)c(=O)n(-c2ccccc2)n1C | inconclusive: 35.5 µM [inhibitor, single point] | – |
| O=C(N/N=C/c1ccc(Br)cc1)c1ccc(Br)o1 | inconclusive: 7.94 µM [inhibitor, full curve, poor fit] | – |
